From article PMC4336329 (PLoS ONE, 2015)
Out of some 310,000 compounds screened, about 14,000 (4.5%) showed an effect of 50% or more. The effect is printed as a negative number. The list shows a part of the results.

What follows are molecules tested against human ether-à-go-go-related gene (hERG) potassium channel (human, UniProt Q12809) (assay: primary screen, population patch clamp on CHO cells stably expressing hERG).
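Also: peak tail current of the secondary pulse compared with the same well before compound.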

Chain of human ether-à-go-go-related gene (hERG) potassium channel (Q12809 whole entry, looked up): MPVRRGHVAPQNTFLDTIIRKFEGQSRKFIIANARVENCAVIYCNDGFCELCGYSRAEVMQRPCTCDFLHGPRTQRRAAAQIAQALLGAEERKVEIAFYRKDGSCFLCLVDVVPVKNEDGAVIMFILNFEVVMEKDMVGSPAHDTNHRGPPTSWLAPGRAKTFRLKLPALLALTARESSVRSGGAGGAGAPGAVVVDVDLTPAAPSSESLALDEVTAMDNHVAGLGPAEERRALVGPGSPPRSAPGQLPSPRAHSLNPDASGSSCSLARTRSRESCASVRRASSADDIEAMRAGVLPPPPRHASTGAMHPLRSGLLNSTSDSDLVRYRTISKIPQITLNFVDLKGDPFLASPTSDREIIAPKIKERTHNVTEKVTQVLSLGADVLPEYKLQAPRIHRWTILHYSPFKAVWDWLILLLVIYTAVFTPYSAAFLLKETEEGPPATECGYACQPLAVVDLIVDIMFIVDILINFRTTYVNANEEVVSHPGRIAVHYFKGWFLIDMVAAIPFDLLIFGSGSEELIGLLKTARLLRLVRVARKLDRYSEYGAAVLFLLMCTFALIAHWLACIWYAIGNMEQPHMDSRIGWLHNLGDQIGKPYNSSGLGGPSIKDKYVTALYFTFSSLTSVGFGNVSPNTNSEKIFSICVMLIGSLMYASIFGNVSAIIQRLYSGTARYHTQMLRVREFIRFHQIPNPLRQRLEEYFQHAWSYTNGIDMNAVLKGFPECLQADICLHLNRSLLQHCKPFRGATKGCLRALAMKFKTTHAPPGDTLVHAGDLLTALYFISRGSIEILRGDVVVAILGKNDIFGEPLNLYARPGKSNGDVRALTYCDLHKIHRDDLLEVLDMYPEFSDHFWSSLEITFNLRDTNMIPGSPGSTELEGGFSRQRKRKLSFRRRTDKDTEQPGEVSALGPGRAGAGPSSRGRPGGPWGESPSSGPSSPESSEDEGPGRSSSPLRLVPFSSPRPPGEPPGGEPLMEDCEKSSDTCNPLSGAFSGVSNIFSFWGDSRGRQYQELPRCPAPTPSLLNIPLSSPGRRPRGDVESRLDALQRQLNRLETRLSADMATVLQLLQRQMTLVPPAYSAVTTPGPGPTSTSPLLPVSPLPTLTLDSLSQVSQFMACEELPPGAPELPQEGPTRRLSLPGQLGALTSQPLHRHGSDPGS

Row | Structure (SMILES) | hERG current change (%, negative = inhibition) at 10uM [%]
1 | CN(Cc1ccccc1)c1nc(-c2cccc([N+](=O)[O-])c2)nc2ccccc12 | 3.02
2 | COC(=O)/C(N=Nc1cccc(C(F)(F)F)c1)=C(\C)O | -13.7
3 | O=C(NCCCNC(=O)c1ccco1)c1ccco1 | 0.119
4 | O=C(Nc1cccc(O)c1)c1ccc(C(=O)c2ccccc2)o1 | -9.95
5 | COc1ccc(NC(=O)Nc2ccc(Br)cn2)cc1OC | -6.12
6 | CN(Cc1ncc[nH]1)C(=O)CC1C(=O)NCCN1Cc1c(F)cccc1Cl (stereo not shown) | 5.59
7 | Cc1ccccc1OCc1nnc(SCc2nc3ccccc3c(=O)[nH]2)n1C | 12.9
8 | CNC(=O)CCC(=O)Nc1ccc(C)cc1 | 4.78
9 | NC(=O)C1c2ccccc2CSc2ccccc21 (stereo not shown) | 3.14
10 | CCOC(CNC(=O)Cc1c(C)nc2c(-c3ccccc3)c(C)nn2c1C)OCC | -20.5
11 | COc1ccc(C(=O)NCc2nnc(SCC(=O)N3CCCC3)o2)cc1OC | 25.6
12 | COc1ccc(N2CCN(CC(=O)c3c(C)n(C)c4ccc(OC)cc34)CC2)cc1 | -4.1
13 | CCOc1cc(C(=S)N2CCCC2)ccc1OCC(=O)Nc1c(C)cc(C)cc1C | 16.5
14 | C=CCNC(=S)/N=c1/ccccn1CC | 23.1
15 | CCN(CC(=O)NCc1ccc(Cl)cc1)C(=O)c1cc(S(=O)(=O)NCc2ccccc2)ccc1C | -25.6
16 | Cl.O=C(CSC1=NCCN1)Nc1cccc([N+](=O)[O-])c1 | -7.56
17 | O=C(CN(Cc1ccc(F)cc1)C(=O)CNS(=O)(=O)c1ccc(F)cc1)NCC1CCCO1 (stereo not shown) | 4.02
18 | COc1cc(OC)cc(C(=O)N2CCC(C(=O)Nc3ccc4c(c3)OCCO4)CC2)c1 | 2.48
19 | Oc1[nH]c2ccccc2c1N=NC(=S)NCC1CCCO1 (stereo not shown) | 12.7
20 | C=CCNc1nc(NCC)nc(N2CCOCC2)n1 | -0.791
21 | O=C1NC2(CCCC2)N=C1c1ccc(Cl)cc1 | -7.77
22 | O=C(NC1CCSC1)c1cccc(Cl)c1 (stereo not shown) | 16.4

Row | Structure (SMILES) | hERG current change (%, negative = inhibition) at 10uM [%]
23 | COc1ccccc1-n1c(C)nnc1SCC(N)=O | 15.4
24 | COc1ccc(N2CCN(C(=O)c3c(Cl)cnn3C)CC2)cc1 | 4.26
25 | Cc1nc2c(-c3ccc(Cl)cc3)cnn2c2c1CCC2 | 1.41
26 | COc1ccc2nccnc2c1[N+](=O)[O-] | 21.2
27 | CCC(=O)NC(=S)Nc1cc(C(=O)O)ccc1OC | 15
28 | CCCNC(=O)COC(=O)c1n[nH]c2ccccc12 | 15.1
29 | CC1C/C(=N\NC(=S)NC(C)C)CC(C)(C)C1 (stereo not shown) | 9.06
30 | Cc1c(NC(=O)CN2C(=O)NC3(CCCCC3)C2=O)c(=O)n(-c2ccccc2)n1C | 0.855
31 | CC(C)C[C@@H](C(=O)NC1CC1)N1C(=O)N2CCc3c([nH]c4ccccc34)[C@@]2(C)C1=O | -15
32 | CCOC(=O)N1CCC(N2Cc3cccc(C(=O)NC(C)c4ccc5c(c4)OCCO5)c3C2=O)CC1 (stereo not shown) | -67.5
33 | COc1ccc(NS(=O)(=O)c2cccs2)cc1S(=O)(=O)N1CCOCC1 | 9.23
34 | Cc1ccc(-c2nnc(N(C)C(=O)C3CCCO3)s2)cn1 (stereo not shown) | 6.74
35 | O=C(CSc1nc(O)c(Cc2ccccc2)c(=O)[nH]1)c1ccccc1 | 17.8
36 | CCN1CCN(CC(=O)N2N=C(c3cccs3)CC2c2ccc(OC)cc2)C(=O)C1=O (stereo not shown) | -8.83
37 | Cc1nc(C(C)NC(=O)c2cc(COc3ccc(C)c(C)c3)on2)c(C)s1 (stereo not shown) | 16.2
38 | CCOc1ccc(S(=O)(=O)N2CCCCC2)cc1NC(=O)CN1CCCC1c1cccs1 (stereo not shown) | 8.64
39 | COc1ccc(C(=O)NC(=O)CSc2nnc(-c3ccco3)n2-c2ccccc2)cc1 | 2.28
40 | COc1cccc(-n2nc(C(=O)N3CC(C)CC(C)C3)c3ccccc3c2=O)c1 (stereo not shown) | 3.43
41 | Cc1c(NS(=O)(=O)c2cc(Br)cc3c2N(C(=O)C2CC2)CC3)c(=O)n(-c2ccccc2)n1C | 6.98
42 | Cc1c(C(=O)O)sc2nc(SCC(=O)Nc3ccc(S(=O)(=O)NC(C)(C)C)cc3)[nH]c(=O)c12 | 28.5
43 | Cc1onc(C(=O)N2CCN(c3ccccc3)CC2)c1[N+](=O)[O-] | 16.1
44 | O=C(OCc1cc([N+](=O)[O-])cc2c1OCOC2)c1ccc2ccccc2n1 | 14.3

Row | Structure (SMILES) | hERG current change (%, negative = inhibition) at 10uM [%]
45 | CCCn1c(SCC(=O)Nc2ccc(C(=O)Nc3ccccc3OC)cc2)n[nH]c1=O | 11.9
46 | Cc1nnc(NC(=O)CSC2=NN3CCCC(=O)N=C3S2)s1 | 2.76
47 | C/C=C/Cn1c(Br)nc2c1c(=O)[nH]c(=O)n2C | -24.8
48 | COc1cccc(C(=O)NCc2nnc(SCC(=O)Nc3nccs3)n2-c2cccc(C)c2)c1 | -18.3
49 | Cc1oc(-c2ccccc2F)nc1CS(=O)(=O)CC(=O)NCc1ccccc1Cl | -17.9
50 | O=C(c1ccc(Cl)cc1)C1CCCN(Cc2ccc3ncccc3c2)C1 (stereo not shown) | -64.3
51 | CC(C)(C)OC(=O)N1CCN(c2ccc([N+](=O)[O-])cc2)CC1 | -73.3
52 | CCc1ccc(CNC(=O)C2CCCN(c3nn4c(=O)cc(C)nc4s3)C2)cc1 (stereo not shown) | -36.2
53 | Clc1ccc(Nc2nc(-c3cccs3)cs2)nc1 | -1.04
54 | CN(C)S(=O)(=O)N1CCN(c2ccnc3cc(Cl)ccc23)CC1 | -76.2
55 | C=CCn1c(SCC(=O)N2CCOCC2)nc2sc(C)c(C)c2c1=O | -47.6
56 | O=C(CSc1ccc(-c2ccco2)nn1)NCc1ccc(Cl)cc1 | -13.3
57 | O=C(NCCc1cn2ccsc2n1)c1cccs1 | 0.575
58 | COc1cc(/C=N/N2CCN(Cc3ccc(Cl)cc3)CC2)ccc1OC(C)=O | -4.64
59 | O=C(NCCn1ccc2ccccc21)c1cccc([N+](=O)[O-])c1 | -16.9
60 | O=C(O)c1ccccc1C1Nc2ccccc2C(=O)N1CCCN1CCOCC1 (stereo not shown) | 18.4
61 | CCCCc1ccc(NC(=S)N2CCCC(C)C2)cc1 (stereo not shown) | -1.14
62 | CCOC(=O)/C=C/C(=O)OCC(=O)N1CCN(C(=O)c2ccco2)CC1 | 9.59
63 | O=C1CC2(CCCC2)CC(=O)N1c1ccccc1 | 18.7
64 | O=C(COc1ccc(C(=O)O)cc1)Nc1cccc(C(F)(F)F)c1 | 22.5
65 | CCNc1nc(Oc2ccc(Cl)cc2Cl)cc(C(F)(F)F)n1 | -16
66 | CN(C)C(CNc1ccc(C(F)(F)F)cc1[N+](=O)[O-])c1ccccc1 (stereo not shown) | -25.7

Row | Structure (SMILES) | hERG current change (%, negative = inhibition) at 10uM [%]
67 | COc1ccc(-c2[nH]ncc2C=O)cc1 | 6.78
68 | CCOC(=O)C1(CCOc2ccccc2)CCN(C(=O)c2ccc(-n3cccn3)cc2)CC1 | -78.9
69 | Cc1cc(C(=O)OCC(=O)c2c(N)n(C)c(=O)n(C)c2=O)c(C)o1 | 5.21
70 | CCOc1ccccc1Oc1cn[nH]c1-c1ccc(OC)cc1O | -9.1
71 | Cc1cccc(N2CCN(C(=O)CNC(=O)c3cccc([N+](=O)[O-])c3)CC2)c1C | -48.1
72 | CC(NC(=O)c1cc([N+](=O)[O-])cc([N+](=O)[O-])c1)C1CC2CCC1C2 (stereo not shown) | -7.55
73 | COCCn1c(SCC(=O)c2ccccc2)nc2c(c1=O)SCC2 | -31.3
74 | CCN1CCN(C(CC(C)C)c2nnnn2CS(=O)(=O)c2ccc(C)cc2)CC1.Cl (stereo not shown) | 1.9
75 | CCOC(=O)c1c(C)nc2c(c1-c1cc(OC)ccc1OC)C(=O)c1ccccc1-2 | -5.45
76 | COC(=O)CSc1nnc(CNc2ccc(Cl)cc2)n1Cc1ccccc1 | -54.7
77 | CC1=CC(=O)C(C(C)C)=C/C1=C(\c1cc(C(C)C)c(OP(=O)([O-])[O-])cc1C)c1ccccc1C(=O)O.[Na+] | 23.3
78 | N#C/C(=C\c1ccccc1O)C(=O)Nc1cccnc1 | 6.42
79 | O=C(Nc1ccccc1C(=O)O)c1cc(S(=O)(=O)N2CCCCC2)c(Cl)cc1Cl | 13.2
80 | Cc1ccccc1C(=O)Nc1nnc(-c2ccco2)o1 | 26.4
81 | O=C(COC(=O)Cc1ccc(Cl)cc1)Nc1ccccc1F | -10.5
82 | COc1cc(NC(=S)N2CCN(CCO)CC2)cc(OC)c1 | 13.7
83 | C=CCn1c(O)c(C2=c3ccccc3=NC2=O)s/c1=N/c1nccs1 | 6.79
84 | O=C(Nc1ccc(F)cc1)C1CCN(S(=O)(=O)c2ccc3[nH]c(=O)oc3c2)CC1 | -1.24
85 | Nc1nnnn1/N=C/c1ccccc1OCc1ccc(Cl)cc1Cl | -5.6
86 | CCOC(=O)C1CCCN(C(=O)CNS(=O)(=O)c2ccc(Br)s2)C1 (stereo not shown) | -23.4
87 | CCNC(=O)NC(=O)COC(=O)CCc1nc(=O)c2ccccc2n1C | 4.87
88 | CCC(=O)O/N=C(\N)c1ccc(Oc2cc(C)c(Cl)c(C)c2)c([N+](=O)[O-])c1 | 5.6
